From the RNAGym collection of RNA variant scans (doi:10.7554/elife.90254)
Read counts are not given, so values of variants with three or more changes are uncertain.

B1: LINE1-mini (parent)
chain: GGCAGAGCUCAACACAGCGUGGCAAAGUGGCUGUGGCUAGACUGCC

Variants of: B1
Assay: self-cleavage, relative activity (ratio to wild type); higher = more cleavage; in vitro, sequencing; the parent is a self-cleaving ribozyme

**Q.** With GGCAGAUCUCAACAAAGCUUGGCAAAGUGGCUGUGCUUAGACUGCC [G7U C15A G19U G36C C37U] as the variant, how does the self-cleavage read?
**A.** 0.11

**Q.** Which self-cleavage does the source give for GGCAGAUCUUAACACAGCGUGGCAAAGUGGCUGAGGCUAUACUGCC [G7U C10U U34A G40U] here?
**A.** 0.06

**Q.** Which self-cleavage does the source give for GGCAGAUCUCAACAGAGCGUGGCAAAUAGGCUGUGGCUAGACUGCC [G7U C15G G27U U28A] here?
**A.** 0.15

**Q.** Which self-cleavage does the source give for GGCAGAUCUCAACACGGCGUGGCUAAGUGGCUGUGGCUAGACUGCC [G7U A16G A24U] here?
**A.** 0.05

**Q.** Which self-cleavage does the source give for GGCAGAUCUCAACACAGAGAGGCAAAGUGGCUGUGGCUAGACUGCC [G7U C18A U20A] here?
**A.** 0.04

**Q.** For GGCAGAUCUCAACACAGCGUGGCAGAUUGGCUGUGACUAGACUGCA [G7U A25G G27U G36A C46A], which self-cleavage is on record?
**A.** 0.05

**Q.** For GGCAGAUAUCAACACAGCGUGGCAAAGUGGCUGUGGCUAGACUACC [G7U C8A G44A], which self-cleavage is on record?
**A.** 0.48

**Q.** For GGCAGAUCUCAACACAGCAUGGCAAAAUGGCUGUGGCUAGACUGCA [G7U G19A G27A C46A], which self-cleavage is on record?
**A.** 0.02

**Q.** Which self-cleavage does the source give for GGCAGAUCUCAACACCGCGUGGCAAAGUGGCUGUGGCUAUAGUGCA [G7U A16C G40U C42G C46A] here?
**A.** 0.25

**Q.** Which self-cleavage does the source give for GGCAGAUCUCAACAUCACCUGGGAAAGUAGCUGUGGCUAGACUGCC [G7U C15U A16C G17A G19C C23G G29A] here?
**A.** 0.12

**Q.** Which self-cleavage does the source give for GGCAGAUCUUUAGACAGCGGGGCAAAGUGGCUGUGGCUUGAGUGCC [G7U C10U A11U C13G U20G A39U C42G] here?
**A.** 0.04

**Q.** With GGCAGAUUUCAACACAGCGCGGAAAAGUGGCUGUGGCUAGACUGCC [G7U C8U U20C C23A] as the variant, how does the self-cleavage read?
**A.** 0.07

**Q.** For GGCAGAUCUCAACACAGUGCGGCAAAGUGCCUGUGGCUAGAGUGCC [G7U C18U U20C G30C C42G], which self-cleavage is on record?
**A.** 0.03

**Q.** Which self-cleavage does the source give for GGCAGAUCUCAACAAGGCGUUGCAAAGUGGCUGUGGCUAGACUGCC [G7U C15A A16G G21U] here?
**A.** 0.07

**Q.** For GGCAGAUGUCAACACAGCGUGGCAAAGUGACUGUGGCUAGACUGCC [G7U C8G G30A], which self-cleavage is on record?
**A.** 0.37

**Q.** For GGCAGAUUUCAACACAGCGUGGCAAAGUAGUUGUGGCUAGACUGUC [G7U C8U G29A C31U C45U], which self-cleavage is on record?
**A.** 0.08

**Q.** For GGCAGAUCUCAACACACCGUGGCAAAGUGGCUGUGGCAAGAUUGCC [G7U G17C U38A C42U], which self-cleavage is on record?
**A.** 0.01

**Q.** Which self-cleavage does the source give for GGCAGAUCUCAACACAGGGUGGGAAAUUAGCUGUGGCUAGACUGCC [G7U C18G C23G G27U G29A] here?
**A.** 0.03

**Q.** Which self-cleavage does the source give for GGCAGAUCUAAACACAGCGUGGCAAAGUGGCUGUGGCUAGACCGCC [G7U C10A U43C] here?
**A.** 0.04

**Q.** For GGCAGAUCUAAACACAGCGUGGCAAAGUUGCUGUUGCUAAACUGCC [G7U C10A G29U G35U G40A], which self-cleavage is on record?
**A.** 0.01

**Q.** Which self-cleavage does the source give for GGCAGAUCUCAACACAGCGUGGAAACGUUGCAGUGGCUAGACUUCC [G7U C23A A26C G29U U32A G44U] here?
**A.** 0.51

**Q.** Which self-cleavage does the source give for GGCAGAUAUCAACACAGCGUGGCAAAUUGUCUGUGGCUAGAGGGCC [G7U C8A G27U G30U C42G U43G] here?
**A.** 0.66

**Q.** For GGCAGAUCUCAUCACAGCGCGGCAAAGGGGCAGUGGAUUGACUGGC [G7U A12U U20C U28G U32A C37A A39U C45G], which self-cleavage is on record?
**A.** 0.01

**Q.** With GGCAGAUCUUAACACAGCUUGGCAAGGGAGCUGUGGCUAGACUGCC [G7U C10U G19U A26G U28G G29A] as the variant, how does the self-cleavage read?
**A.** 0.01

**Q.** With GGCAGAUCUCAACACAGAAUGGCAAAGUGGAUGAGGCUAGUCUGCC [G7U C18A G19A C31A U34A A41U] as the variant, how does the self-cleavage read?
**A.** 0

**Q.** With GGCAGAUCUCAACACAGCGUGGCCAAGUGGCUGUGGUUAGACUGCC [G7U A24C C37U] as the variant, how does the self-cleavage read?
**A.** 0.03

**Q.** With GGCAGAUAUCAACACAGCGUGGCAAAGUGGCUGGGGCUAGACUGCC [G7U C8A U34G] as the variant, how does the self-cleavage read?
**A.** 0.26

**Q.** With GGCAGAUCUAAACAAAGCGUGGCAAAGUGGCUGUGGCUAGACUGCC [G7U C10A C15A] as the variant, how does the self-cleavage read?
**A.** 0.01

**Q.** With GGCAGAUCUCAUCACAGCGUGUCAAAGUGGAUGUGGCUAAACUGCC [G7U A12U G22U C31A G40A] as the variant, how does the self-cleavage read?
**A.** 0.04

**Q.** Which self-cleavage does the source give for GGCAGAUCUCAACACGGCAUGGCAAAGUGGGUGUAGCUAGACUGCC [G7U A16G G19A C31G G35A] here?
**A.** 0.02

**Q.** Which self-cleavage does the source give for GGCAGAUAUCAACACCGCGUGGCAAAGUGGCUGUGGCUAGACUGCC [G7U C8A A16C] here?
**A.** 0.04

**Q.** With GGCAGAUCUUAAAACAGCGUGGCAAAGUGGCUGAGGCUACACUGUC [G7U C10U C13A U34A G40C C45U] as the variant, how does the self-cleavage read?
**A.** 0.07

**Q.** For GGCAGAUCUCAACACGGCGUGGCAAAGUGGCUGUGGGUAGACUGCC [G7U A16G C37G], which self-cleavage is on record?
**A.** 0.03

**Q.** With GGCAGAUCUCAACACAGCGUGGCAAAGUGGCUGUGGGUACACUGCC [G7U C37G G40C] as the variant, how does the self-cleavage read?
**A.** 0.09

**Q.** For GGCAGAUCUCAACACAGCGUGGCAAAGUGGCUGUGGGUAUACUGCC [G7U C37G G40U], which self-cleavage is on record?
**A.** 0.17

**Q.** For GGCAGAUCUCAACACAGCGUGGCAAUGUGGCUUUGGCAAGACUGCC [G7U A26U G33U U38A], which self-cleavage is on record?
**A.** 0.09

**Q.** With GGCAGAUGUCAACACAGCGUGGCAAAGCGGCUGUUGCUAGUCUGCC [G7U C8G U28C G35U A41U] as the variant, how does the self-cleavage read?
**A.** 0.19

**Q.** Which self-cleavage does the source give for GGCAGAUCUCAACACAGCGUGGCAAAGUGGAUGUGGCUAUACUGCC [G7U C31A G40U] here?
**A.** 0.48

**Q.** With GGCAGAUCUCAACACAGUGAGGCUAAGUGGCUGUGGCUAGACUGCC [G7U C18U U20A A24U] as the variant, how does the self-cleavage read?
**A.** 0.08

**Q.** Which self-cleavage does the source give for GGCAGAUCUGAACAGAGCGUGGCAAAGUGGCUGUGGCUAGAUUGCC [G7U C10G C15G C42U] here?
**A.** 0.01

**Q.** With GGCAGAUCUGAACACAGCGUGGCACAGUGGCUGUGGCUAGACUGCA [G7U C10G A25C C46A] as the variant, how does the self-cleavage read?
**A.** 0.03

**Q.** For GGCAGAUAUCAACACAGCGUGGCAAAGUGCCUGUGGCUAGACUGUC [G7U C8A G30C C45U], which self-cleavage is on record?
**A.** 0.17

**Q.** For GGCAGAUCUCAACAGAGCGUGGCAAAGUGGCUGUGGCUAGAAAGCC [G7U C15G C42A U43A], which self-cleavage is on record?
**A.** 0.13

**Q.** With GGCAGAUCUUACCACAGCGUUGCAAAGUGGCUGCGGCUAGACUGCC [G7U C10U A12C G21U U34C] as the variant, how does the self-cleavage read?
**A.** 0.01

**Q.** With GGCAGAUCUCAAUACAGCGGGGCAAAGUGGCUGUGGCUAGACUGCC [G7U C13U U20G] as the variant, how does the self-cleavage read?
**A.** 0.03

**Q.** For GGCAGAUCUCAACACUGCGUUUCAAAGUGGCUGUGGCUAGAAUGCC [G7U A16U G21U G22U C42A], which self-cleavage is on record?
**A.** 0.11

**Q.** Which self-cleavage does the source give for GGCAGAUCUCAACACACCGUGGCAGAGUGGCUGUGGCUAGACUGCC [G7U G17C A25G] here?
**A.** 0.22

**Q.** Which self-cleavage does the source give for GGCAGAUCUCAACACAGUGUGGCAAAGGGGAUGUGGCUACACUGCC [G7U C18U U28G C31A G40C] here?
**A.** 0.01

**Q.** For GGCAGAUCUCAAUACAGCGUGCCAAAGUGGCUGUGGGUAGACUGCC [G7U C13U G22C C37G], which self-cleavage is on record?
**A.** 0.02

**Q.** For GGCAGAUCUCAACACAGCGUGGCGAGGUGGCUGUGGGUAGACCGCC [G7U A24G A26G C37G U43C], which self-cleavage is on record?
**A.** 0.01

**Q.** With GGCAGAUCUCAAUACAGCGUGGCCAAGUGGCAGUGGCUAGACUGCC [G7U C13U A24C U32A] as the variant, how does the self-cleavage read?
**A.** 0.17

**Q.** For GGCAGAUCUCAACACAGAGUGGCAUGGUGGCUGUGGCUAGACUGCC [G7U C18A A25U A26G], which self-cleavage is on record?
**A.** 0.04

**Q.** With GGCAGAUAUCAGCACAGCGUGGCAAAGUGGCUGUGGCUAGACUGCG [G7U C8A A12G C46G] as the variant, how does the self-cleavage read?
**A.** 0.06

**Q.** For GGCAGAUCUCAAAACAGCGUAGCAAAGUAGCUGUAGCUAGACAGCC [G7U C13A G21A G29A G35A U43A], which self-cleavage is on record?
**A.** 0.02

**Q.** With GGCAGAUCUCAAAACAGCGUGGCAAAGUGUCUGUGGCUAGAAUGUC [G7U C13A G30U C42A C45U] as the variant, how does the self-cleavage read?
**A.** 0.03

**Q.** With GGCAGAUCUCAACACAGCGUGGCGAAGUGGCUGUGCCUAGACUGCC [G7U A24G G36C] as the variant, how does the self-cleavage read?
**A.** 0.05
